Reference: PubChem BioAssay AID624417 (National Center for Advancing Translational Sciences (NCATS), 2012)
In all, about 410,000 compounds went through this assay and about 6,400 (1.6%) were called active. Inconclusive means that the source gave no clear call. Such entries were picked first, then a sample of the others. Calls follow the shape of the dose curve; as a rule, active = well fitted inhibition curve with a large enough effect; inconclusive = small, poorly fitted or top-dose-only effect; inactive = no such curve, though single readings can be large or run the other way. Potencies of inconclusive entries are doubtful fits and often do not repeat.

Biological target: Glucagon-like peptide 1 receptor (Homo sapiens) (UniProt P43220)
Experiment: qHTS of GLP-1 Receptor Inverse Agonists (Inhibition Mode); also: nearly all actives have a fitted effect of over 55% in size
Settings: HEK293 GLP-1R CRE-luciferase, luminescence, 24 h, GLP-1R form is constitutively active; series mostly up to 38.3 µM
Method in brief: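 Luminescence readout: a drop in cAMP-driven luciferase signal flags inverse agonism at a constitutively active GLP-1R stably expressed in HEK293. Compound exposure lasted 24 hr at 37 deg C, 5% CO2.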
Potency is read from the fitted curve at half-maximal effect; tags tell the direction and shape of the fitted curve.

UniProt P43220, sequence (P43220 whole entry, looked up): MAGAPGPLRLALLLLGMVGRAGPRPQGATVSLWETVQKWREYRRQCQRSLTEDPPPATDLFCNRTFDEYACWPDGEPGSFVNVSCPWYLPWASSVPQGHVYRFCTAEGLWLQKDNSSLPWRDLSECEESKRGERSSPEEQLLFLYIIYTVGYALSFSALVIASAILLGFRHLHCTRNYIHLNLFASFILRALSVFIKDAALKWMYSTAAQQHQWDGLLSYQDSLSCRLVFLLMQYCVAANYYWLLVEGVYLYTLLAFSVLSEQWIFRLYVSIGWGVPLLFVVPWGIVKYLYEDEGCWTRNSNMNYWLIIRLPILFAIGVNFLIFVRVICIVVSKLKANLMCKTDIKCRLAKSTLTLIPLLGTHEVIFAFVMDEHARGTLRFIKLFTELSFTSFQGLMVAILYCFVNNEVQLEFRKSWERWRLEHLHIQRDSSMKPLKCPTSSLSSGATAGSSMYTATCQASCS

Potency, inconclusive:
O=C(c1ccccc1NS(=O)(=O)c1ccc(F)cc1)N1CCc2ccccc21 31.6 µM [inhibitor, single point]
CN1CCC(NC(=S)Nc2cccc([N+](=O)[O-])c2)CC1 11.2 µM [inhibitor, single point]
Cc1[nH]c2ccccc2c1/C=N/NC(=O)c1cc(-c2ccccc2)n[nH]1 28.2 µM [inhibitor, single point]
O=C(Cn1c(CC(=O)N2CCOCC2)nc2ccccc21)Nc1ccc2c(c1)OC(F)(F)O2 28.2 µM [inhibitor, partial curve, poor fit]
Cc1cccc(Oc2ccc(Cl)cc2N)c1 11.2 µM [inhibitor, single point]
CCc1ccc(NC(=O)c2noc3c2CCc2ccccc2-3)cc1 28.2 µM [inhibitor, single point]
O=S(=O)(Nc1cc(Cl)ccc1N1CCCCC1)c1cccs1 7.94 µM [inhibitor, partial curve, poor fit]
Cc1ccc(-c2csc(C(O)c3ccc(F)c(F)c3)n2)cc1C (stereo unspecified) 11.2 µM [inhibitor, single point]
O=S(=O)(c1cccs1)N1CCN(C/C=C/c2ccccc2)CC1 22.4 µM [inhibitor, single point]
O=C1/C(=C\c2cccc(O)c2O)SC(=S)N1Cc1ccccc1 11.2 µM [inhibitor, partial curve, poor fit]
Cc1cc(C)nc(NCc2ccc(Cl)cc2)n1 22.4 µM [inhibitor, single point]
O=C(NCCN1CCC(n2c(=O)[nH]c3ccccc32)CC1)c1ccc(F)c(C(F)(F)F)c1 22.4 µM [inhibitor, partial curve, poor fit]
CCCCC(=O)Nc1nnc(S(=O)(=O)N2CCCc3ccccc32)s1 7.94 µM [inhibitor, partial curve, poor fit]
COc1ccc(NC(=O)c2ccc(-c3ccccc3C(F)(F)F)o2)cc1 11.2 µM [inhibitor, partial curve, poor fit]
O=C(Nc1ccc(NS(=O)(=O)c2ccccc2)c(Cl)c1)c1ccccc1 28.2 µM [inhibitor, single point]
Cc1cccc(C)c1NC(=O)CN(C)C(=O)c1ccccc1Cc1ccccc1 14.1 µM [inhibitor, single point]
CCOc1ccc(/C=N/OCC(=O)NC(c2ccccc2)c2ccccc2)cc1 8.91 µM [inhibitor, partial curve, poor fit]
CN(C)S(=O)(=O)Oc1ccccc1C(=O)Nc1cccc(C(F)(F)F)c1 20 µM [inhibitor, single point]
Cc1cc2nc(Sc3c([N+](=O)[O-])nc(C)n3Cc3ccccc3)[nH]c2cc1C 10 µM [inhibitor, partial curve, poor fit]
Cc1ccc(/C=N/Nc2nc3ccccc3[nH]2)s1 28.2 µM [inhibitor, partial curve, poor fit]
CCOC(=O)c1ccc(NC(=O)c2csc3c2CCCCC3)cc1 12.6 µM [inhibitor, partial curve, poor fit]
Cc1nonc1OCC(C)(COc1nonc1C)NC(=O)c1ccccc1 2.82 µM [inhibitor, partial curve, poor fit]
Cc1ccc(C(C)C)c(OCCn2ccnc2C)c1 31.6 µM [inhibitor, single point]
Cc1ccc2nc(Cl)c(CN(Cc3cccs3)C(=O)C3CC3)cc2c1 28.2 µM [inhibitor, single point]
Cc1ccccc1CN1C(=O)c2ccccc2C1c1nnnn1-c1ccc2c(c1)OCCO2 (stereo unspecified) 4.47 µM [inhibitor, partial curve]
CCOc1ccc(NC(=O)NN2C(C)CCCC2C)cc1 (stereo unspecified) 25.1 µM [inhibitor, partial curve, poor fit]
Cc1nn(-c2ccccc2)c(N)c1N=Nc1ccc2ccccc2c1 28.2 µM [inhibitor, single point]
COc1ccccc1/C=C1\SC(=S)N(CCC(=O)NCCc2ccc(O)cc2)C1=O 22.4 µM [inhibitor, single point]
CC(C)C(NS(=O)(=O)/C=C/c1ccccc1)C(=O)NCc1ccc(F)cc1 (stereo unspecified) 31.6 µM [inhibitor, single point]
O=C(Nc1ccc2oc(-c3cccnc3)nc2c1)c1ccc(-c2ccccc2)o1 31.6 µM [inhibitor, single point]
Cc1nn(-c2nc(-c3ccc(F)cc3)cc(C(F)(F)F)n2)c(C)c1Cl 12.6 µM [inhibitor, single point]
COc1cccc(-c2ccc3c(c2)C2CC3CCN2C(=O)c2ccc(-c3ccccc3)cc2)c1 (stereo unspecified) 11.2 µM [inhibitor, partial curve, poor fit]
COc1ccc(NC(=O)CCOc2ccccc2C)cc1S(=O)(=O)N1CCCCC1 8.91 µM [inhibitor, partial curve, poor fit]
COc1ccc([C@@H]2CC=C(C(=O)O)[C@H](c3ccc(F)cc3)N2S(=O)(=O)c2ccccc2C)cc1 11.2 µM [inhibitor, partial curve, poor fit]
CC(C)C1CCN(C(=O)C2CCC(=O)N(CCc3ccc(Cl)cc3)C2)CC1 (stereo unspecified) 7.94 µM [inhibitor, partial curve, poor fit]
CCCCN=C(NNc1ccc(Br)cc1)C(=O)OCC 5.62 µM [inhibitor, partial curve, poor fit]
CCOC(=O)N(O)c1ccc(C=Cc2ccccc2)cc1 3.55 µM [inhibitor, full curve, poor fit]
O=C(c1ccc([N+](=O)[O-])cc1)N1CCSC1c1ccc(Br)cc1 (stereo unspecified) 12.6 µM [inhibitor, single point]
Cc1ccc(S(=O)(=O)N2CCOCC2)cc1NC(=O)CNCc1ccc(Cl)cc1Cl 12.6 µM [inhibitor, partial curve, poor fit]
Brc1cnc(N2CCCCC2)nc1N1CCOCC1 28.2 µM [inhibitor, single point]
O=C1OC(Sc2ccccc2)(c2ccccc2)c2ccccc21 (stereo unspecified) 11.2 µM [inhibitor, partial curve, poor fit]
O=C(NC1CCCCC1)c1cnn2c(C(F)(F)F)cc(-c3ccco3)nc12 25.1 µM [inhibitor, single point]
CCOc1ccc(NC(=O)Nc2ccc3snnc3c2)cc1 8.91 µM [inhibitor, single point]
Cc1ccc2cccc(NC(=O)c3ccc(Br)o3)c2n1 31.6 µM [inhibitor, single point]
CCOc1ccc(Cl)cc1-c1cc(C(=O)NC2CCCCC2)[nH]n1 10 µM [inhibitor, single point]
CCCc1cc(=O)oc2cc(C)cc(OCC(=O)Nc3ccc(CN4CCOCC4)cc3)c12 28.2 µM [inhibitor, single point]
NC(=O)c1cccc(-c2ccnc3c2CC(C(=O)NCc2ccco2)O3)c1 (stereo unspecified) 1.78 µM [inhibitor, full curve, poor fit]
CC(=O)NC(=C(Cl)Cl)S(=O)(=O)c1ccccc1 28.2 µM [inhibitor, single point]
COc1ccc(C(=O)Nc2cccc(NC(=O)c3ccc(OC)c(OC)c3)n2)cc1OC 11.2 µM [inhibitor, partial curve, poor fit]

Potency, active:
CC(C)C[C@H](NC(=O)OC(C)(C)C)c1nnc(SCc2ccccc2)o1 8.91 µM

Potency, inactive:
O=C(NNc1cccc(Cl)n1)c1cccnc1Cl
CCC1CCCCN1C(=O)c1nn(-c2ccc(C)cc2)c(=O)c2c1c1ccccc1n2C (stereo unspecified)
COc1ccc(Cn2ccnc2SCC(=O)NCc2ccccc2)cc1
O=C1C(C=Nc2ccc(F)cc2)=C(O)c2ccccc21
CN(C)C(=O)c1ccc(NC(=O)c2ccccc2SCC(=O)N2CCCC2)cc1
CCOCc1cnc(C)nc1NCC(=O)c1c(C)n(C)c2ccc(OC)cc12
COc1cc(NC(=O)c2ccnc(N)c2)cc(C(=O)Nc2cccc(C(F)(F)F)c2)c1
Cc1ccn2c(NC(=O)c3cccs3)c(-c3ccccc3)nc2c1
Cc1nc(Nc2ccccc2F)c2nnn(Cc3ccccc3Cl)c2n1
Cc1nn(S(=O)(=O)c2ccccc2)c(C)c1Sc1ccc([N+](=O)[O-])cc1
O=S(Cc1ccccc1)c1ccccc1 (stereo unspecified)
CC(C)=NOc1nc(N2CCOCC2)nc(N2CCOCC2)n1
COc1ccc(CN2C(=O)C(CC(=O)NCCc3ccccn3)CC(C(=O)N(C(C)C)C(C)C)=C2C)cc1 (stereo unspecified)
COc1cccc(CNC(=O)Cc2c(C)c3c(cc(C)c4c(C)coc43)oc2=O)c1
O=C(Cn1ncc2c3ccccc3n(Cc3ccccc3)c2c1=O)Nc1ccccc1C(F)(F)F
CC(C)c1ccc(NS(=O)(=O)c2ccc3[nH]cc(C(=O)N4CCCC4)c(=O)c3c2)cc1
